Experimental data taken from article PMC4336329 (PLoS ONE, 2015).
The campaign covered roughly 310,000 compounds. About 14,000 (4.5%) showed an effect of 50% or more. The effect is printed as a negative number. Some of the results follow.

The molecules below were run against human ether-à-go-go-related gene (hERG) potassium channel (human, UniProt Q12809) (assay: primary screen, population patch clamp on CHO cells stably expressing hERG).
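Note: peak tail current of the secondary pulse compared with the same well before compound.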

Chain of human ether-à-go-go-related gene (hERG) potassium channel (Q12809 whole entry, looked up): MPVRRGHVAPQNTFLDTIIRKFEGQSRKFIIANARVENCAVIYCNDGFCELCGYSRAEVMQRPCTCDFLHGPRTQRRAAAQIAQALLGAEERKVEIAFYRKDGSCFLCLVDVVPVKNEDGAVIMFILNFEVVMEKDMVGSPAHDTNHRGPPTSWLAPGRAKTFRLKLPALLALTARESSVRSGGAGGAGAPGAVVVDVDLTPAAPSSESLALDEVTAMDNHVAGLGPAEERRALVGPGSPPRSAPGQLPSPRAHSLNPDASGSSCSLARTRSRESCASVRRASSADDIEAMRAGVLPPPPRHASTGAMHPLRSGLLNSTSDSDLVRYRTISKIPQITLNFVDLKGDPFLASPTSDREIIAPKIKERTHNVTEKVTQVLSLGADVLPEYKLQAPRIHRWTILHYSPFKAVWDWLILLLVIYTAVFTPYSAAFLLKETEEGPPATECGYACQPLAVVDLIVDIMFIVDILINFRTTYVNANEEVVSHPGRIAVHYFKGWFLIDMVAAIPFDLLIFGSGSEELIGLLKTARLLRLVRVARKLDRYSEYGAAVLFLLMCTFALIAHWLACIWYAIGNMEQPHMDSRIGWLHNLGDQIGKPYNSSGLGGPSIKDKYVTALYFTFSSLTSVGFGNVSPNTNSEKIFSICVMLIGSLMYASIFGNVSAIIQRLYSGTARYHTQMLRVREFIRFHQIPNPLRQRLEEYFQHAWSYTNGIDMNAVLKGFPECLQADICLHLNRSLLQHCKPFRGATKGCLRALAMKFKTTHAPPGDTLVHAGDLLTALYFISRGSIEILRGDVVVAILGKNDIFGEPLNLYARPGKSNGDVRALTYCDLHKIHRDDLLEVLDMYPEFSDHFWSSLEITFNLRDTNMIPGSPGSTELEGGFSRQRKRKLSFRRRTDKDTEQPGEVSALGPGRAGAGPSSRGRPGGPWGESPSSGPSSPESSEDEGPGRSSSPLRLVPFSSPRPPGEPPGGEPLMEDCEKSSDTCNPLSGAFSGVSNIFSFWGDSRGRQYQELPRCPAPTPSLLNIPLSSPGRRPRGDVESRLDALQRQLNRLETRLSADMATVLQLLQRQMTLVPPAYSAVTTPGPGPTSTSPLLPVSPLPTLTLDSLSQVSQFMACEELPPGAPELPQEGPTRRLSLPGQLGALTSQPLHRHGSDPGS

Row | Compound | hERG current change (%, negative = inhibition) at 10uM
1 | O=C(COC(=O)c1ccccn1)c1ccc([N+](=O)[O-])cc1 | 2.58%
2 | CC(O)c1nc2ccccc2n1CCCOc1ccccc1 (centres unmarked) | -7.48%
3 | CCn1c(SCC(=O)Nc2nc(C)cs2)nnc1-c1ccncc1 | 11.2%
4 | COc1ccc(F)cc1S(=O)(=O)NCc1cc(=O)n(C)c(=O)n1C | 3.38%
5 | CN1CCSc2ccc(C(=O)Nc3cccc(F)c3)cc21 | -30.3%
6 | O=C(O)Cn1ncc2ccccc2c1=O | 19.2%
7 | O=[N+]([O-])c1cnc2ccccc2c1 | -12.7%
8 | O=C(NCCC(c1ccccc1)c1ccccc1)c1ccc(Br)o1 | -21.5%
9 | CCc1ccc2oc(C(=O)N3CCN(c4ccc(OC)cc4)CC3)cc(=O)c2c1 | -36.7%
10 | O=C(Nc1ccccc1)C1CC2CCCC(C1)C2=O (centres unmarked) | -21.1%
11 | Cc1ccc(C)c(-n2c(-c3ccc(Br)cc3)csc2=NC(=O)c2ccccc2F)c1 | 26.7%
12 | COc1ccc(CCC(=O)OCC(=O)Nc2ccccc2)cc1 | 29.6%
13 | COc1ccc(CNC(=O)C(C)Cc2ccccc2)cc1O (centres unmarked) | 13.1%
14 | Cc1noc(C)c1S(=O)(=O)N1CCC(C(=O)Nc2ccc(OC(F)(F)F)cc2)CC1 | -11.5%
15 | Cc1cc(C)n(-c2ccccc2[N+](=O)[O-])n1 | 20.1%
16 | Cc1cccc(NC(=O)CCC2CCN(C(=O)C3CC=CCC3)CC2)c1 (centres unmarked) | -31.5%
17 | CC(=O)c1cccc(OCc2cc(C(=O)NC(C)Cc3cccnc3)no2)c1 (centres unmarked) | -6.23%
18 | Br.C=CCN1CCc2cccc3c2[C@H]1Cc1ccc(O)c(O)c1-3 | -19.3%
19 | CCN(c1cccc(C)c1)c1nc2ccsc2c(=O)s1 | 2.57%
20 | CCOc1ccc(/C=C2\SC(=O)N(c3ccc(O)cc3)C2=O)cc1OC | 8.06%
21 | Cc1noc(NS(=O)(=O)c2ccc(NC(=O)c3ccc(Br)o3)cc2)c1C | 13.8%
22 | Cn1c(=O)c([N+](=O)[O-])c(NCC(O)c2ccccc2)c2ccccc21 (centres unmarked) | -2.03%
23 | Cc1cc(C(=O)Cn2nnc3ccccc3c2=O)c(C)n1-c1ccccc1F | 1.45%

Row | Compound | hERG current change (%, negative = inhibition) at 10uM
24 | O=C(CCNS(=O)(=O)c1cccs1)N1CCN(c2cccc(C(F)(F)F)c2)CC1 | -26%
25 | CN(C(=O)Nc1ccc(Cl)cc1)n1cnc2ccccc2c1=O | -5.97%
26 | CCOC(=O)c1c(NC(=O)CS(=O)(=O)c2cn(CC)c3ccccc23)sc2c1CCCCC2 | 17.9%
27 | CN(CC(=O)Nc1ccccc1C(F)(F)F)C(=O)c1cc([N+](=O)[O-])ccc1N1CCOCC1 | 12.6%
28 | O=C(NCc1ccc(F)cc1)C1CC(=O)N(CCc2ccccc2)C1 (centres unmarked) | -24.1%
29 | CCC(=O)Nc1ccc(NC(=O)Cc2ccccc2)cn1 | 5.6%
30 | CC(C)(C)NC(=O)CN(Cc1cccs1)C(=O)c1csnn1 | 4.73%
31 | CCCCC(=O)Nc1cnc(NC(=O)c2ccco2)cc1C | -27.5%
32 | CCCCn1c(SCC(=O)Nc2nnc(C)s2)nnc1-c1ccoc1C | 2.29%
33 | Cc1c(Cl)cccc1NC(=S)N1CCOCC1 | 9.36%
34 | O=C(Cc1ccc(Cl)cc1)Nc1cc(Cl)ccn1 | -17.3%
35 | COc1cc(/C=N/Nc2ccccn2)ccc1O | -4.36%
36 | CCCCN(CCCNC(=O)C1CCCN(S(=O)(=O)CCC)C1)Cc1ccccc1 (centres unmarked) | -49.3%
37 | Cc1nc2ccc(NC(=O)c3ccc(S(=O)(=O)N(C)C)cc3)cc2s1 | 16.6%
38 | CCOc1ccc2c(c1)C(C)=CC(C)(C)N2C(=O)Nc1ccccc1F | 11.3%
39 | c1ccc(-n2cc(CN3CCCC(CN4CCCC4)C3)c(-c3ccc4c(c3)OCO4)n2)cc1 (centres unmarked) | -29.2%
40 | O=C(CCN1CCN(Cc2ccccc2)CC1)NNC(=O)Cc1ccc(Cl)c(Cl)c1 | -74.7%
41 | O=S(=O)(NCc1ccccc1Br)c1cccs1 | -8.38%
42 | Cc1ccccc1NC(=O)c1c(C)[nH]c(=S)c(C#N)c1-c1ccco1 | 10.3%
43 | CCc1ccc(C(=O)OCC(=O)NC2CCCC2)cc1 | 11.8%
44 | CCc1ccc2nc(N(CCCN(C)C)C(=O)c3ccc4c(c3)OCCO4)sc2c1.Cl | -48.3%
45 | Cc1ccc(CN2CC34C=CC(O3)C(C(=O)NCc3ccco3)C4C2=O)cc1 (centres unmarked) | -6.72%
46 | Cc1noc(/C=C/N(C)C)c1S(=O)(=O)N1CCC(C(=O)Nc2ccc(Cl)cc2)CC1 | -11.3%

Row | Compound | hERG current change (%, negative = inhibition) at 10uM
47 | CSc1nc(-c2ccco2)nn1C(=O)CCc1ccccc1 | 25%
48 | COc1ccc(CN2CCN(c3ncnc4scc(-c5ccc(F)cc5)c34)CC2)cc1 | -65.8%
49 | Cc1cc(Cl)c(S(=O)(=O)NCc2ccccc2)cc1OCC(N)=O | -23.6%
50 | Nc1nc(-c2cccnc2)nc2sc3c(c12)CCCC3 | 0.573%
51 | COc1ccccc1NC(=O)/C(C#N)=C/c1ccc(OCCN2CCOCC2)c(OC)c1 | -6.48%
52 | O=C(Cn1cnc2c(cnn2-c2ccccc2)c1=O)NC1CCCC1 | -17.5%
53 | CCC(C(=O)Nc1nc(C)c(C)s1)c1ccccc1 (centres unmarked) | 12.5%
54 | CCN(C(=O)COc1cc(OC)ccc1C(C)=O)C1CCS(=O)(=O)C1 (centres unmarked) | -2.94%
55 | COc1ccc(Nc2ncnc3c2c(C)c(C)n3CCCN(C)C)cc1 | -32.7%
56 | CCOC(=O)/C(C(=O)Nc1ccccc1Cl)=C1/NC(C)(C)Cc2ccccc21 | -7.22%
57 | CCN(CC)C(=O)C1CC(=O)N(c2ccc(OC)cc2)C1c1ccc(OC)cc1 (centres unmarked) | 18.9%
58 | CCOc1ccc(NC(=O)Nc2ccc(Br)cn2)cc1 | 12.1%
59 | Cc1ccccc1C(=O)N1CC(=O)Nc2ccc(F)cc2C1c1ccc(F)cc1 (centres unmarked) | -16.1%
60 | COCCN(CC1CCCN(C2Cc3ccccc3C2)C1)C(=O)CCC(F)(F)F (centres unmarked) | -55.4%
61 | COc1ccc(/C=C2\C(=O)c3ccccc3OC2c2ccccc2)cc1 (centres unmarked) | 7.66%
62 | COc1cc2c3c(c1)C1(C(=O)N3C(C)(C)C=C2C)C(C#N)=C(N)Oc2cc(O)ccc21 (centres unmarked) | -12%
63 | CC[C@H](C)C(N)c1cn(C(CCCN=C(N)N)C(=O)N2CCNCC2)nn1 (some centres unmarked) | 5.4%
64 | Cc1ccc(/C(O)=C2\C(=O)C(=O)N(CCN(C)C)C2c2ccccc2F)cc1 (centres unmarked) | -13.4%
65 | Cc1ccc(C(=O)NC(N2CCCC2)C(Cl)(Cl)Cl)cc1 (centres unmarked) | 0.862%
66 | Cc1ccc(C)c(N2CCN(C(=O)CCc3nc4ccccc4[nH]3)CC2)c1 | 1.66%
67 | O=C(c1cc(COc2ccc(F)cc2F)on1)N1CCOCC1 | 17.7%
68 | Cc1cc(C)cc(NC(=O)[C@@H](NC(=O)c2ccco2)C(C)C)c1 | 5.62%
69 | O=C(c1ccccc1)C1NC1c1ccccc1 (centres unmarked) | 10.5%

Row | Compound | hERG current change (%, negative = inhibition) at 10uM
70 | CC(=O)Nc1ccc(OC(=O)c2cc([N+](=O)[O-])ccc2Cl)cc1 | -4.87%
71 | C=C(C)C1CC=C(C)/C(=N/NC(=O)c2ccc(NC(=O)CC)cc2)C1 (centres unmarked) | -15.1%
72 | COc1ccc(NS(=O)(=O)c2cc(NC(=O)c3ccc(C)o3)ccc2N2CCCCC2)cc1 | 2.8%
73 | N/C(=N\OC(=O)c1ccccc1Cl)c1ccc(Cl)cc1 | -29.6%
74 | Cc1cc(C)nc(NC(=O)c2ccc(OC(C)C)cc2)n1 | 1.25%
75 | Cc1coc2cc3oc(=O)c(CCC(=O)N4C[C@H]5C[C@@H](C4)c4cccc(=O)n4C5)c(C)c3cc12 | -42.5%
76 | Cc1ccc(C(=O)CC(C(=O)O)n2cnc([N+](=O)[O-])n2)cc1 (centres unmarked) | 15.2%
77 | CC(O/N=C/c1ccccc1OC(F)F)C(=O)Nc1cccc(S(=O)(=O)N2CCOCC2)c1 (centres unmarked) | -33.9%
78 | CCOc1ccccc1CN1CCCC(CNC(=O)Cc2ccc(OC)cc2)C1 (centres unmarked) | -22.1%
79 | COCC(=O)N=Nc1c(O)[nH]c2ccccc12 | -5.52%
80 | O=C(Oc1cccc(Oc2ccccc2)c1)N1CCOCC1 | -22.9%
81 | CC(C)(C)c1ccc(S(=O)(=O)N2CCCC2C(=O)N2CCOCC2)cc1 (centres unmarked) | -18%
82 | CCCC(NS(=O)(=O)c1ccc(C)cc1)C(=O)O (centres unmarked) | 3.73%
83 | C=CCn1c(C)nc2ccccc2c1=O | 5.76%
84 | CC(C)CCCN1C(Nc2ccccc2)=NC[C@@H]1CC(C)C | -60.1%
85 | COC(=O)/C(C#N)=C(/Nc1ccc(F)c(Cl)c1)C(F)(F)F | 13.1%
86 | CCC(C)c1ccccc1NS(=O)(=O)c1cnn(CC)c1 (centres unmarked) | 0.986%
87 | O=C(Nc1cc(Cl)ccc1-n1cncn1)c1cc(S(=O)(=O)N2CCOCC2)ccc1F | -34.7%
88 | O=C(CSc1nnnn1-c1ccc(O)cc1)N1N=C(c2ccc3ccccc3c2)CC1c1ccccc1 (centres unmarked) | 10.9%
89 | CC(=O)c1ccc(NC(=O)C(C)Sc2nnc(C3CC3)n2C2CC2)cc1 (centres unmarked) | -27.9%
